Data: PubChem BioAssay AID652104 (National Center for Advancing Translational Sciences (NCATS), 2013)
Hit rate of the full screen: of about 410,000 compounds, about 7,200 (1.8%) were called active. Inconclusive results, whose numbers are uncertain, are shown with a selection of clear calls. Calls come from the whole dose curve; as a rule, active = well fitted activation curve with a large enough effect; inconclusive = small, poorly fitted or top-dose-only effect, or another doubt; inactive = no such curve, though single readings can be large or run the other way. Potencies beside an inconclusive call are fits to weak or partial responses and may not hold up.

test: qHTS of TDP-43 Inhibitors; conditions: TDP-43 expressing yeast growth rescue, BacTiter-Glo, 24 h; growth rescue (activation): at 46.1 µM (top of the series) unless noted; note: nearly all actives have a fitted effect of over 50% in size; for growth rescue (activation): % of control where 0% means no effect
Method in brief: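 Galactose-induced TDP-43 yeast, OD600=0.02, compound pinned; 24 hr, 30 deg C; BacTiter-Glo luminescence for growth. Inhibitors of TDP-43 toxicity read as activators.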
Potency is the fitted concentration of half-maximal effect; tags give direction and shape of the fitted curve.

Potency, active:
S=C(NCC1CCCO1)N1CCN(c2ccc(Cl)c(Cl)c2)CC1 (centres undefined) 22.4 µM
CCSc1nc(N)nc(-c2cccs2)c1C#N 22.4 µM
O=C(c1ccc2c(c1)OCO2)N1CCN(S(=O)(=O)c2ccc(Br)cc2Cl)CC1 17.8 µM

Potency, inconclusive:
O=C1c2c(O)cc(O)cc2O[C@@]12c1c(cc(O)c3c1O[C@H](c1ccc(O)cc1)[C@@H](O)C3)O[C@@H]2c1ccc(O)cc1 3.98 µM [activator, partial curve]
Cc1c(C(=O)NCc2cccc(Cl)c2)sc(=O)n1Cc1ccc(F)cc1 35.5 µM [activator, single point]
Cc1ccc2oc3ccccc3c(=O)c2c1 6.31 µM [activator, partial curve]
COc1ccc(NC(=S)Nc2cccc([N+](=O)[O-])c2)cc1 35.5 µM [activator, single point]
O=C1C=C(c2cccc3c2oc2ccccc23)CCC1 20 µM [activator, single point]
O=C(Cn1cc(COc2cc(F)cc(F)c2)nn1)c1ccc(O)cc1 6.31 µM [activator, partial curve]
CC1(Cc2ccccc2C#N)C(=O)Nc2cc(-c3ccccc3Cl)ccc21 (centres undefined) 3.55 µM [activator, full curve]
O=C(CS(=O)(=O)Cc1ccccc1)N1CCN(c2ccccc2F)CC1 35.5 µM [activator, partial curve]
COc1cc(NS(C)(=O)=O)ccc1Nc1c2ccccc2nc2ccccc12 20 µM [activator, partial curve]
CC(C)(C)c1cc(NC(=O)Nc2ccccc2)no1 12.6 µM [activator, single point]
Cc1ccc(-c2nc(C)c(CCNS(=O)(=O)c3ccccc3F)s2)cc1 25.1 µM [activator, single point]
Cc1nn(C(=O)c2cccc([N+](=O)[O-])c2)c(C)c1Sc1ccccc1 35.5 µM [activator, single point]
COC(=O)c1sc(NC(=O)c2c(C)noc2C)nc1C 35.5 µM [activator, single point]
CCOc1cc(/C=N/O)ccc1OCC(=O)Nc1cccc(C)c1 11.2 µM [activator, partial curve]
COc1cn(-c2ccccc2)nc1C(=O)Nc1ccc(C)cc1 12.6 µM [activator, single point]
CCCC#Cc1cnc2c(c1)C(=O)N([C@H](C)CO)C[C@@H](C)[C@H](CN(C)S(=O)(=O)c1cccc(OC)c1)O2 15.8 µM [activator, single point]
O=C(OCc1csc(-c2ccccc2)n1)C1=NN(c2ccccc2)C(=O)CC1 15.8 µM [activator, single point]
COc1ccc(CCC(=O)Nc2cc(Cl)ccc2OC)cc1 15.8 µM [activator, single point]
CNC(=S)N/N=C/c1cn(Cc2ccc(C)cc2)c2ccccc12 2 µM [activator, full curve]
O=C(O)c1cc(-c2c[nH]c3ccccc23)nc2ccc3ccccc3c12 35.5 µM [activator, single point]
Cc1nc2ccccc2c(=O)n1C1CCCCCC1 35.5 µM [activator, partial curve]
Cc1c(C(=O)NCCSCc2cccc(C(F)(F)F)c2)cnn1-c1ccc(F)cc1 22.4 µM [activator, single point]
COc1ccc(Cl)cc1NC(=O)CSc1nccn1Cc1ccco1 0.562 µM [activator, full curve, poor fit]
COC(=O)c1ccccc1NC(=O)C1CCN(C(=O)N2CCOc3ccccc32)CC1 35.5 µM [activator, single point]
CCc1ccc(CN2C(=O)c3ccccc3C2C(=O)NCCc2ccc(OC)c(OC)c2)cc1 (centres undefined) 2.82 µM [activator, partial curve]
CN(C)C(=O)COC(=O)c1cc(Cl)cc(Cl)c1N 14.1 µM [activator, single point]
CCN1CCN(c2cc3c(cc2F)c(=O)c(C(=O)O)cn3C2CC2)CC1 0.794 µM [activator, full curve, poor fit]
CC1COC(Cn2c3ccccc3c3ccccc32)O1 (centres undefined) 35.5 µM [activator, single point]
Cc1ccccc1C(=O)NC(NCc1ccco1)C(Cl)(Cl)Cl (centres undefined) 28.2 µM [activator, partial curve]
CCOc1ccc(OCC)c(NC(=O)CN(C)S(=O)(=O)c2ccc3c(c2)CCCC(=O)N3)c1 22.4 µM [activator, partial curve]
O=C(Cn1nc(-c2ccc(Cl)cc2)ccc1=O)NCc1ccccc1Cl 35.5 µM [activator, single point]

Growth rescue (activation), inactive:
Cc1ccccc1CN(C)CC(=O)NC(C)CCc1ccccc1 (centres undefined) 1.44%
COc1ccc(S(=O)(=O)NCCc2cn3cccc(C)c3n2)cc1OC 18.3%
Cc1ccc(Sc2ccc(CN3CCCC3)cc2[N+](=O)[O-])cc1 0%
O=C(c1ccc2nccnc2c1)N1CCN(c2cccc(C(F)(F)F)c2)CC1 0%
O=C(Cc1ccccc1)N1CCc2ccccc21 26.1%
Cc1ccc(C(=O)Nc2c(C(=O)NCc3ccc(Cl)cc3)sc3nc(C)cc(C)c23)cc1 13.1%
O=C1C(=O)N(C2CCN(S(=O)(=O)c3ccc(F)cc3)CC2)CCN1Cc1ccccc1 7.02%
CC(=O)Oc1ccc(-c2cccc(C(=O)N3CCCCC3)c2)cc1 -16% [at 1.82 µM]
Cc1cc(SCC(=O)N2CCCC2=O)nc2c(C)cccc12 4.11%
CC(C)(C)NC(=O)CSc1nc(O)cc(=O)n1-c1ccccc1 8.52%
